{"source": "the supplement of paper PMC4604168 (melanoma cell lines)", "note": "The list shows a part of the results. Most values come without repeats; read them as rough."}
{"test_system": "COLO829", "assay": "cell count relative to DMSO control; melanoma cells; higher = more viable cells", "details": "library dose: low library concentration; 72 h", "units": {"cell count": "%"}}
{"compound": "O=c1[nH]nc(Sc2ncc([N+](=O)[O-])s2)n1-c1ccc2c(c1)OCCO2", "note": "+ COc1ccc(Cl)c(Nc2nc3ccccc3nc2NS(=O)(=O)c2cccc(NC(=O)C(C)(C)N)c2)c1 [XL147] (first compound 0.2 µM, partner dose 0.8 µM);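 also: cell number obtained by counting DAPI-stained nuclei in high-throughput microscope images with image analysis software, screen run in 1,536-well plates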", "cell count": 98.4}
{"compound": "C[C@@H]1CCN(C(=O)CC#N)C[C@@H]1N(C)c1ncnc2[nH]ccc12", "note": "+ COc1ccc2c(c1)CCC1C2CCC2(C)C(NCCCCCCN3C(=O)C=CC3=O)CCC12 [U73122] (first compound 1 µM, partner dose 0.4 µM)", "cell count": 95.5}
{"compound": "CC1(C)NC(=O)N(c2ccc([N+](=O)[O-])c(C(F)(F)F)c2)C1=O", "note": "[nilutamide] + c1cc(-c2cnn3cc(-c4ccc(OCCN5CCCCC5)cc4)cnc23)ccn1 [Dorsomorphin] (first compound 1 µM, partner dose 0.4 µM)", "cell count": 84.4}
{"compound": "O=c1[nH]nc(Sc2ncc([N+](=O)[O-])s2)n1-c1ccc2c(c1)OCCO2", "note": "+ C=CCNC1=C2C[C@@H](C)C[C@H](OC)[C@H](O)[C@@H](C)/C=C(\\C)[C@H](OC(N)=O)[C@@H](OC)/C=C\\C=C(/C)C(=O)NC(=CC1=O)C2=O [Tanespimycin] (first compound 0.2 µM, partner dose 0.002 µM)", "cell count": 86.8}
{"compound": "O=C(Nc1cccc(Cl)c1)Nc1ncc(CCNc2ncnc3ccsc23)s1", "note": "+ COc1cc(N2CCC(N3CCN(C)CC3)CC2)ccc1Nc1ncc(Cl)c(Nc2ccccc2S(=O)(=O)C(C)C)n1 [NVP-TAE684] (first compound 0.0008 µM, partner dose 0.08 µM)", "cell count": 89.4}
{"compound": "O=c1[nH]nc(Sc2ncc([N+](=O)[O-])s2)n1-c1ccc2c(c1)OCCO2", "note": "+ C[C@]1(c2nc3c(C(N)=O)cccc3[nH]2)CCCN1 [Veliparib] (first compound 0.2 µM, partner dose 1.4 µM)", "cell count": 92.1}
{"compound": "O=C(Nc1cccc(Cl)c1)Nc1ncc(CCNc2ncnc3ccsc23)s1", "note": "+ CCCCCCCCCCCC1=C(O)C(=O)C=C(O)C1=O [Embelin] (first compound 0.0008 µM, partner dose 1.2 µM)", "cell count": 96.9}
{"compound": "O=C(Nc1cccc(Cl)c1)Nc1ncc(CCNc2ncnc3ccsc23)s1", "note": "+ c1cc(-c2cnn3cc(-c4ccc(OCCN5CCCCC5)cc4)cnc23)ccn1 [Dorsomorphin] (first compound 0.0008 µM, partner dose 0.4 µM)", "cell count": 74.9}
{"compound": "C[C@@H]1CCN(C(=O)CC#N)C[C@@H]1N(C)c1ncnc2[nH]ccc12", "note": "+ CCCCCCCCCCCC1=C(O)C(=O)C=C(O)C1=O [Embelin] (first compound 1 µM, partner dose 1.2 µM)", "cell count": 103}
{"compound": "COc1cc(Nc2ncc(F)c(Nc3ccc4c(n3)NC(=O)C(C)(C)O4)n2)cc(OC)c1OC", "note": "[Tamatinib] + Oc1nc(-c2ccc(C(F)(F)F)cc2)nc2c1CSCC2 [XAV939] (first compound 0.4 µM, partner dose 2 µM)", "cell count": 93.4}
{"compound": "O=C(O)c1ccc(-c2c[nH]c3ncc(-c4ccccc4)cc23)cc1C1CCCC1", "note": "+ COc1ccc2c(c1)CCC1C2CCC2(C)C(NCCCCCCN3C(=O)C=CC3=O)CCC12 [U73122] (first compound 0.16 µM, partner dose 0.4 µM)", "cell count": 72.5}
{"compound": "O=c1[nH]nc(Sc2ncc([N+](=O)[O-])s2)n1-c1ccc2c(c1)OCCO2", "note": "+ Nc1ccn([C@@H]2O[C@H](CO)[C@@H](O)C2(F)F)c(=O)n1 [gemcitabine] (first compound 0.2 µM, partner dose 0.0004 µM)", "cell count": 87.4}
{"compound": "CC1(C)NC(=O)N(c2ccc([N+](=O)[O-])c(C(F)(F)F)c2)C1=O", "note": "[nilutamide] + CCCCCCCCCCCC1=C(O)C(=O)C=C(O)C1=O [Embelin] (first compound 1 µM, partner dose 1.2 µM)", "cell count": 115}
{"compound": "O=c1[nH]nc(Sc2ncc([N+](=O)[O-])s2)n1-c1ccc2c(c1)OCCO2", "note": "+ CNC(=O)c1cc(Oc2ccc(NC(=O)Nc3ccc(Cl)c(C(F)(F)F)c3)cc2)ccn1 [sorafenib] (first compound 0.2 µM, partner dose 0.4 µM)", "cell count": 80.1}
{"compound": "Cn1cncc1[C@@](N)(c1ccc(Cl)cc1)c1ccc2c(c1)c(-c1cccc(Cl)c1)cc(=O)n2C", "note": "[tipifarnib] + COC(=O)c1sccc1S(=O)(=O)Nc1ccc(Nc2ccccc2)cc1OC [GSK0660] (first compound 0.01 µM, partner dose 1 µM)", "cell count": 101}
